The full ranking holds about 33,000 sequences; the median of “E-score (-0.5 to 0.5)” is about -0.054, and the highest 2% start at about 0.39. Some of the results follow.
target: Ylr278c (UniProt Q05854); assay: PBM E-score (8-mer binding enrichment) (E-score (-0.5 to 0.5)); higher = stronger / more preferred TF binding; most listed sequences are background and not binding sites; settings: protein concentration: 200 nM; construct: GST-DNA-binding domain
Protocol: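 Universal 'all 10-mer' protein binding microarrays (Agilent AMADID 015681) probed with GST-tagged S. cerevisiae TFs (full-length or DBD) made by in vitro transcription/translation (PURExpress), about 100-200 nM. Bound TF was detected with fluorescent anti-GST. Each ungapped 8-mer (which stands for itself and its reverse complement) is scored by the PBM enrichment score (E-score), a modified Wilcoxon-Mann-Whitney statistic from -0.5 to +0.5, computed with the Universal PBM Analysis Suite. Scale: above 0.35 generally sequence-specific binding.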

Sequence	PBM E-score
CATCCCGC	0.167
CAGACTCA	-0.242
GTACACCA	-0.162
ATACGAGG	-0.0907
AGCCGCGA	0.185
GGACGATA	0.0331
CGTCGCGC	0.103
GATTCCGA	0.413
AAACTAGT	-0.125
ATGAGCGC	-0.0209
AAAGATTA	0.159
CGCTCTTC	-0.043
GGACAGAA	0.0642
TCGCCTAA	-0.0503
CCTAACAG	-0.13
ACGTTATG	-0.0459
CATGGCTA	-0.0652
GCTTATTA	-0.101
AACTCGAA	-0.11
AGCTCATC	-0.0266
CGCAGTAC	-0.23
GACGGGCA	0.0635
CGTTCAAC	-0.0583
CTTGCTGC	-0.271
GATGCAAC	-0.0627

Sequence	PBM E-score
CTAGATCA	-0.331
ACCGTGAG	-0.0949
TTAAGGAA	-0.0896
ACACGAAG	0.00792
AGGAAAGG	-0.151
GGAGACAC	0.173
CACTATAC	-0.219
AATGTGTA	-0.196
AGGGACGG	0.00956
CGCCGCGC	0.287
TATCGCAA	-0.0847
CAGAAGCC	0.0666
GAGTGAAC	0.00297
ACTTAACA	-0.132
AGCTCACG	-0.083
ACAAAGCA	-0.0597
CGCTACAC	0.00231
ATACCTGC	-0.213
ATCGTAAT	-0.117
AGCTAATG	-0.219
CCATTCAA	-0.0303
CGAGACAA	-0.0718
ATGTTTTC	0.116
ATCAAATA	-0.0863
GATGTGCA	-0.131

Sequence	PBM E-score
ATGGTTGC	-0.23
ATGACGTA	-0.2
CAAGAACG	-0.0605
ATCCTAAT	-0.1
ACCCAGCA	-0.0981
ATCATCTA	-0.112
CCTTGTTC	-0.0785
CACCCAGA	-0.18
CATTGGCG	-0.191
ATAGTGAC	-0.179
GCAGCGAA	-0.163
ATTCTAGG	-0.263
AGGAACAG	-0.279
CTACAGAC	-0.0911
CCTAGGCC	0.0534
AGATTCAG	-0.142
CAAAGGGG	-0.224
AGCCAGCG	-0.159
CGGAGTGA	0.459
ACTCTCCT	-0.0833
AATGTCAG	-0.137
CAAAGATC	-0.121
ACTCTCTA	-0.335
GCCGACGC	0.33
ACCGGCAA	0.285

Sequence	PBM E-score
GACGACAC	0.0544
AACAGCCG	0.0132
CAGATGAA	-0.107
ACAGCATA	-0.047
AGTTTACC	0.067
GCAGCGCA	-0.0397
CTTTATCA	-0.215
ATGCATCA	0.0873
AAACGCCC	0.204
CACAACTC	0.0754
CAAACAAG	0.0172
GCATCTCA	-0.235
ATACAAGG	-0.1
CTCCGGAG	0.481
ACATTGAG	-0.114
GACTTAGA	-0.148
CACCCTTC	-0.0372
TTACATAA	-0.0071
TCCGCGGA	0.44
CAACAAAA	-0.221
AGGAAACG	-0.0963
CCCGTAAC	0.173
TGAGGCAA	-0.214
ACTCTATG	-0.148
ACGGTCAG	-0.314

Sequence	PBM E-score
ACTGTGAA	-0.185
CACTTGCA	-0.186
CAAGGCGA	-0.199
GGTGAGAA	0.052
ACTCGATC	-0.0157
CAGTTACG	-0.0458
TCCAGAAA	-0.029
ATGCTATC	-0.0946
CTAAGTGA	-0.0496
CGACCCAA	-0.118
GAATTGTC	0.0455
ATCTGAGG	-0.11
CTCCCGCC	0.254
AGCAGAGG	-0.143
ACGTTCTC	-0.0461
CGCTTCAC	-0.0767
GGGGAACA	-0.0328
ATACCCGA	0.151
AGAGTAGG	-0.0231
ACTCTTGC	-0.131
AGTCAAAT	-0.158
ATGATAGG	-0.12
AGGGTCCA	0.00243
GCATACGC	0.127
AGCAGTAA	-0.0545

Sequence	PBM E-score
GTGGTTTA	0.0618
CAGAGCGA	0.0392
TTATTCAA	-0.0937
AGGGGCGA	-0.0788
CCTCGCAA	-0.0139
GCGCGCCA	0.161
ACATCTAA	-0.148
AACCCTCG	-0.0138
AAGACAGT	-0.0351
AGTAGAAG	-0.172
ACAGGGGC	-0.0558
CAGTGGTA	-0.305
CCCCGAAC	0.315
GCACCCAC	-0.0269
AATCTGGG	-0.158
ATAAGCGG	0.146
AAGGGGAA	-0.236
AGCTAGGA	-0.114
AACAGACT	-0.132
ACTAGGAT	-0.13
CCCGTACC	0.21
AAACTGAG	-0.0407
AACGATCA	-0.132
CAGTTAGC	-0.102
GTGGCCGA	0.146

Sequence	PBM E-score
AGCAGGAC	-0.0119
GTGGATTA	0.0111
CACTCAGA	-0.152
AGTATTTC	0.123
GATTCTCC	0.22
TATGTGGA	-0.0561
ATGACCGG	0.291
CCCCTGAC	-0.01
AAACTCGT	-0.202
CCCTTCAA	-0.0436
ACTCGAGC	-0.141
TAGGAGAA	-0.134
AAATCGGT	0.148
CTCCTCGC	-0.137
AGCCGCTC	0.151
ATATGCGG	0.234
CAAGTACC	0.0395
ACGGAGTG	0.401
AGCGCCAT	-0.199
AGATCCCT	-0.18
AACTCTAG	-0.364
AGGTCGGC	0.114
